Test results published in patent US20240261236A1, “METHODS OF USING NMDA RECEPTOR ANTAGONISTS” (Seelos Therapeutics, Inc., priority 2021, published 2024).

Experiments:
[1] = system: adults with major depressive disorder (MDD) who are at imminent risk of suicide; assay: MOAA/S sedation, Phase 2 Part 1; settings: subsequent dosing days; except 1 subject with 4 units at the 6-hour time-point on Day 4
[2] = system: adults with major depressive disorder (MDD) who are at imminent risk of suicide; assay: CADSS dissociation, Phase 2 Part 1; settings: if observed, noted at 40 minutes post dose on Day 1

## CNC1(c2ccccc2Cl)CCCCC1=O (racemic) [intranasal racemic ketamine, 1:1 mixture of the two enantiomers of ketamine: (R)-2-(2-chlorophenyl)-2-(methylamino)cyclohexanone and (S)-2-(2-chlorophenyl)-2-(methylamino)cyclohexanone]
[1]
  MOAA/S score (no scores below): ≥ 5 units
[2]
  time to resolution of dissociation: less than 2 hours
